# Test results reported in the supplement of paper PMC9446081.
# Among all 39,000 compounds or so, about 220 (0.56%) showed activity. The list shows a part of the results.
# Test system: Escherichia coli K-12 BW25113
# Assay: relative growth (OD600 normalised to plate interquartile mean) (fraction); higher = less growth inhibition, active = 0.2 or less
# Settings: 50 µM; LB; incubation time: overnight (16-24 h)
# 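Also: static incubation at 37 °C against the wild-type strain, values averaged over two biological replicates.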
row,Structure (SMILES),relative growth
1,NC1C(OC2C(C(=O)[O-])OC(COC3C(CO)OC(O)C(O)C3O)C(OS(=O)(=O)[O-])C2O)OC(COS(=O)(=O)[O-])C(O)C1O (configuration not stated),inactive: 1.01
2,CC(C)=CCc1c(O)cc2oc(C)cc(=O)c2c1O,inactive: 0.958
3,COc1ccccc1C#Cc1cnc2c(c1)C(=O)N([C@H](C)CO)C[C@H](C)[C@H](CN(C)C(=O)CN(C)C)O2,inactive: 0.992
4,C[C@H](CO)N1C[C@H](C)[C@H](CN(C)C(=O)NC2CCCCC2)Oc2ncc(C#CC(C)(C)O)cc2C1=O,inactive: 1.03
5,C[C@H](CO)N1C[C@H](C)[C@H](CN(C)C(=O)CCCN(C)C)OCc2cnnn2CCCC1=O,inactive: 0.947
6,COc1ccc(NC(=O)N(C)C[C@H]2OCCCC[C@H](C)Oc3ccc(NS(=O)(=O)c4ccc(F)cc4)cc3C(=O)N([C@@H](C)CO)C[C@H]2C)cc1,inactive: 1.01
7,O=C1O[C@H](c2ccccc2)[C@H](c2ccccc2)N2[C@H]1[C@@H](C(=O)N1CCCCCCC1)[C@]1(C(=O)Nc3ccc(C#CC4=CCCCC4)cc31)[C@H]2c1ccccc1OCCO,inactive: 1.06
8,CC(C)NC(=O)N(C)C[C@@H]1Oc2ccc(NC(=O)Cc3ccccc3)cc2C(=O)N([C@H](C)CO)C[C@@H]1C,inactive: 0.995
9,C[C@@H]1CN([C@H](C)CO)C(=O)c2cc(NC(=O)Nc3ccc(C(F)(F)F)cc3)ccc2O[C@@H](C)CCCCO[C@H]1CN(C)Cc1ccccc1,inactive: 0.993
10,Cc1noc(C)c1S(=O)(=O)Nc1ccc2c(c1)CC(=O)N([C@@H](C)CO)C[C@@H](C)[C@H](CN(C)S(=O)(=O)c1cn(C)cn1)O2,inactive: 1.04
11,Cc1noc(C)c1NC(=O)Nc1ccc2c(c1)C(=O)N([C@H](C)CO)C[C@@H](C)[C@H](CN(C)S(=O)(=O)c1ccc(Cl)cc1)OCCCC[C@H](C)O2,inactive: 0.981
12,C[C@@H]1CN([C@@H](C)CO)C(=O)c2cc(NC(=O)Nc3ccc4c(c3)OCO4)ccc2O[C@@H](C)CCCCO[C@@H]1CN(C)S(=O)(=O)c1cccs1,inactive: 1.02
13,C[C@H](CO)N1C[C@H](C)[C@H](CN(C)C(=O)Nc2ccc(F)cc2)OCCCC[C@H](C)Oc2ccc(NC(=O)Nc3cccc4ccccc34)cc2C1=O,inactive: 1.05
14,CC(=O)OC/C=C(\C)CCC=C(C)C,inactive: 0.989
15,COc1ccc(S(=O)(=O)N(C)C[C@H]2Oc3ccc(NC(=O)C4CC4)cc3CC(=O)N([C@@H](C)CO)C[C@@H]2C)cc1,inactive: 0.868
16,C[C@H](CO)N1C[C@H](C)[C@H](CN(C)Cc2ccc(-c3ccccc3)cc2)Oc2c(NC(=O)C3CCCCC3)cccc2C1=O,inactive: 1.02
17,COCCCNC(=O)[C@@]1(Sc2ccc(C)cc2)CC(=O)N(Cc2ccccc2C(F)(F)F)[C@@H]1c1ccc(CO)cc1I,inactive: 1.01
18,COc1ccc(S(=O)(=O)N(C)C[C@@H]2OCc3cnnn3CCCC(=O)N([C@@H](C)CO)C[C@@H]2C)cc1,inactive: 0.986
19,N#Cc1ncccn1,inactive: 1.02

row,Structure (SMILES),relative growth
1,CN1C(C(=O)Nc2ccccn2)=C(O)c2sc(Cl)cc2S1(=O)=O,inactive: 0.982
2,COc1cccc(C#Cc2ccc3c(c2)O[C@H](CN(C)S(=O)(=O)c2ccccc2F)[C@H](C)CN([C@H](C)CO)S3(=O)=O)c1,inactive: 1.03
3,C[C@H]1CN([C@@H](C)CO)C(=O)Cc2cc(NC(=O)Cn3cnnn3)ccc2O[C@@H]1CN(C)S(=O)(=O)c1ccc(F)cc1,inactive: 0.986
4,CC(=O)O[C@H](C[C@H](O)[C@@](C)(CCC=C(C)C)O[C@H]1O[C@@H](CO)[C@@H](O)[C@@H](O)[C@@H]1O)/C(C)=C/COC[C@@H](O)[C@@H](O)[C@@H](O)[C@@H](O)CO,inactive: 1.01
5,COc1ccc([C@@H]2CC(=O)c3c(O)cc(O[C@@H]4O[C@H](CO[C@@H]5O[C@@H](C)[C@H](O)[C@@H](O)[C@H]5O)[C@@H](O)[C@H](O)[C@H]4O)cc3O2)cc1O,inactive: 1.02
6,CCCNC(=O)N1CC[C@]2(CC1)CN([C@@H](CO)c1[nH]c3cc(ccc3c12)OC)C(=O)CN1CCOCC1,inactive: 0.998
7,CCS(=O)(=O)N1CCO[C@]2(COCCN(c3cncnc3)C2)C1,inactive: 0.997
8,CC(C)NC(=O)Nc1cccc2c1O[C@@H](CN(C)S(=O)(=O)c1cn(C)cn1)[C@@H](C)CN([C@@H](C)CO)C2=O,inactive: 0.991
9,CN(C)C(=O)C[C@@H]1CC[C@@H]2[C@H](COC[C@H](O)CN2S(=O)(=O)c2ccc(Oc3ccccc3)cc2)O1,inactive: 0.997
10,C[C@H](CO)N1C[C@H](C)[C@H](CN(C)Cc2ccccc2)Oc2ccc(NC(=O)CCN3CCOCC3)cc2CC1=O,inactive: 0.988
11,C[C@H](CO)N1C[C@H](C)[C@@H](CN(C)C(=O)Nc2cccc3ccccc23)Oc2ccc(NC(=O)Cc3cn(C)c4ccccc34)cc2CC1=O,inactive: 1.03
12,Cc1ccc(S(=O)(=O)N(C)C[C@@H]2Oc3c(NC(=O)C4CCOCC4)cccc3C(=O)N([C@@H](C)CO)C[C@@H]2C)cc1,inactive: 0.987
13,CO[C@H]1CN(C)C(=O)c2ccc(NC(=O)Nc3ccccc3)cc2OC[C@@H](C)N(C(=O)CN(C)C)C[C@@H]1C,inactive: 0.986
14,CC(C)C[C@@H](NS(=O)(=O)c1ccc2[nH]c(=O)c(=O)[nH]c2c1)C(=O)O,inactive: 1.02
15,C[C@H](CO)N1C[C@H](C)[C@H](CN(C)Cc2ccc(Cl)c(Cl)c2)Oc2ccc(NC(=O)Nc3ccc(C(F)(F)F)cc3)cc2C1=O,inactive: 1.02
16,C[C@@H]1CN([C@@H](C)CO)C(=O)CCCn2nncc2CO[C@@H]1CN(C)S(=O)(=O)c1ccc(Cl)cc1,inactive: 0.995
17,CN[C@@H]1[C@@H](O)[C@@H](O[C@@H]2[C@@H](O)[C@H](O[C@H]3OC(CN)=CC[C@H]3N)[C@@H](N)C[C@H]2N)OC[C@]1(C)O,inactive: 1.01
18,C[C@@H]1CN([C@@H](C)CO)S(=O)(=O)c2ccc(C#CC(C)(C)O)cc2O[C@@H]1CN(C)Cc1ccc(F)cc1,inactive: 1.02
19,C[C@@H]1CN([C@@H](C)CO)C(=O)Cc2cc(NC(=O)C3CC3)ccc2O[C@@H]1CN(C)C(=O)Nc1ccccc1,inactive: 1.01

row,Structure (SMILES),relative growth
1,C[C@H]1CCCCO[C@@H](CN(C)S(=O)(=O)c2ccc(Cl)cc2)[C@@H](C)CN([C@@H](C)CO)C(=O)c2cc(NS(=O)(=O)c3ccccc3)ccc2O1,inactive: 1.05
2,C[C@@H]1CN([C@@H](C)CO)C(=O)c2cccc(NC(=O)Nc3cccc4ccccc34)c2O[C@H]1CN(C)C(=O)NC1CCCCC1,inactive: 1.01
3,O=C(C[C@H]1C=C[C@@H](NC(=O)c2ccncc2)[C@@H](CO)O1)NCc1ccncn1,inactive: 0.996
4,Cc1noc(C)c1NC(=O)Nc1ccc2c(c1)C(=O)N([C@H](C)CO)C[C@@H](C)[C@H](CN(C)C(=O)Nc1ccc(F)cc1)OCCCC[C@H](C)O2,inactive: 1.01
5,C[C@@H]1CCCCO[C@@H](CN(C)C(=O)Nc2ccc(C(F)(F)F)cc2)[C@@H](C)CN([C@H](C)CO)C(=O)c2cc(NC(=O)CCCCCC(=O)Nc3ccccc3N)ccc2O1,inactive: 0.988
6,COc1ccc(CN(C)C[C@@H]2Oc3ccc(NC(=O)Nc4cccc5ccccc45)cc3CC(=O)N([C@H](C)CO)C[C@@H]2C)cc1,inactive: 0.98
7,C[C@@H]1CN([C@H](C)CO)C(=O)c2cc(NS(=O)(=O)c3ccc(F)cc3)ccc2O[C@@H](C)CCCCO[C@@H]1CN(C)C(=O)NC1CCCCC1,inactive: 1.03
8,Cc1noc(C)c1NC(=O)N(C)C[C@@H]1Oc2c(NC(=O)Nc3cccc4ccccc34)cccc2C(=O)N([C@@H](C)CO)C[C@@H]1C,inactive: 0.912
9,Cc1ccc(S(=O)(=O)N(C)C[C@@H]2Oc3ncc(Br)cc3C(=O)N([C@@H](C)CO)C[C@H]2C)cc1,inactive: 0.991
10,C[C@@H]1CN([C@@H](C)CO)C(=O)c2cc(NS(=O)(=O)c3ccc(Cl)cc3)ccc2O[C@H]1CN(C)C(=O)Nc1cccc2ccccc12,inactive: 1
11,CO[C@@H]1CN(C)C(=O)c2cc(NS(=O)(=O)c3cn(C)cn3)ccc2OC[C@@H](C)N(CCC(F)(F)F)C[C@@H]1C,inactive: 0.987
12,C[C@@H]1CCCCO[C@@H](CN(C)Cc2ccc(Cl)c(Cl)c2)[C@H](C)CN([C@@H](C)CO)C(=O)c2cc(NC(=O)c3ccccc3)ccc2O1,inactive: 1
13,COCC#Cc1ccc2c(c1)O[C@H](CN(C)C(=O)c1ccccc1)[C@H](C)CN([C@H](C)CO)S2(=O)=O,inactive: 0.979
14,C[C@@H]1CN([C@@H](C)CO)C(=O)c2cccc(NC(=O)c3cnccn3)c2O[C@@H]1CN(C)S(=O)(=O)c1cccs1,inactive: 0.972
15,C[C@H]1CN([C@@H](C)CO)C(=O)Cc2cc(NS(=O)(=O)c3ccc(Cl)cc3)ccc2O[C@H]1CN(C)Cc1ccc(C(F)(F)F)cc1,inactive: 1.04
16,C[C@@H]1CN([C@@H](C)CO)C(=O)c2cc(NC(=O)Cn3cnnn3)ccc2O[C@@H]1CN(C)C(=O)Nc1ccc(C(F)(F)F)cc1,inactive: 0.963
17,C[C@@H]1CCCCO[C@@H](CN(C)Cc2ccc3c(c2)OCO3)[C@H](C)CN([C@@H](C)CO)C(=O)c2cc(NC(=O)c3ccccc3)ccc2O1,inactive: 1.01
18,Cn1cnc(S(=O)(=O)N2C[C@H](O)COC[C@H]3O[C@@H](CC(=O)NC4CCC4)CC[C@@H]32)c1,inactive: 1
19,Cc1noc(C)c1NC(=O)Nc1ccc2c(c1)C(=O)N([C@H](C)CO)C[C@H](C)[C@H](CN(C)Cc1ccc(C(=O)Nc3ccccc3N)cc1)O2,inactive: 1.01
